Measured values as given in a collection of fitness landscapes (doi:10.1126/science.1257360).
The list shows a part of the results.

B1: PhoQ; a variant is named by its letters at X, in order, P23837 (parent)
chain: MKKLLRLFFPLSLRVRFLLATAAVVLVLSLAYGMVALIGYSVSFDKTTFRLLRGESNLFYTLAKWENNKLHVELPENIDKQSPTMTLIYDENGQLLWAQRDVPWLMKMIQPDWLKSNGFHEIEADVNDTSLLLSGDHSIQQQLQEVREDDDDAEMTHSVAVNVYPATSRMPKLTIVVVDTIPVELKSSYMVWSWFIYVLSANLLLVIPLLWVAAWWSLRPIEALAKEVRELEEHNRELLNPATTRELTSLVRNLNRLLKSERERYDKYRTTLTDLTHSLKTPLXXLQXXLRSLRSEKMSVSDAEPVMLEQISRISQQIGYYLHRASMRGGTLLSRELHPVAPLLDNLTSALNKVYQRKGVNISLDISPEISFVGEQNDFVEVMGNVLDNACKYCLEFVEISARQTDEHLYIVVEDDGPGIPLSKREVIFDRGQRVDTLRPGQGVGLAVAREITEQYEGKIVAGESMLGGARMEVIFGRQHSAPKDE

Variants of: B1
Assay: enrichment ratio after two sorts for PhoP signalling (ratio (wild type AVST 3.29)); higher = more functional
Conditions: with PhoP (E. coli)

Row | Variant | enrichment ratio
1 | RICW | ≤ 0.25
2 | WRDF | ≤ 0.25
3 | CHCH | 6.79
4 | LSFS | 0.269
5 | QHKS | ≤ 0.25
6 | FCMG | 1.72
7 | PTDH | ≤ 0.25
8 | QSRI | ≤ 0.25
9 | ESRY | ≤ 0.25
10 | VAEL | ≤ 0.25
11 | SFID | ≤ 0.25
12 | HHRI | ≤ 0.25
13 | AFWV | ≤ 0.25
14 | HLMH | ≤ 0.25
15 | HNEA | ≤ 0.25
16 | KGFC | ≤ 0.25
17 | GHIV | ≤ 0.25
18 | PCLK | ≤ 0.25
19 | RDDR | ≤ 0.25
20 | GHPD | ≤ 0.25
21 | VDCP | ≤ 0.25
22 | LHFR | ≤ 0.25
23 | FFRL | ≤ 0.25
24 | QTML | ≤ 0.25
25 | EIED | ≤ 0.25
26 | DTQT | ≤ 0.25

Row | Variant | enrichment ratio
27 | IACG | ≤ 0.25
28 | GIYN | 0.353
29 | ARMQ | ≤ 0.25
30 | FHIK | ≤ 0.25
31 | DMGM | ≤ 0.25
32 | KQNT | ≤ 0.25
33 | NWRM | ≤ 0.25
34 | KNPY | ≤ 0.25
35 | YCWA | ≤ 0.25
36 | FPQW | ≤ 0.25
37 | VYKD | ≤ 0.25
38 | SWEE | ≤ 0.25
39 | IIGG | ≤ 0.25
40 | TGTL | 13.5
41 | PMRK | ≤ 0.25
42 | MQRD | ≤ 0.25
43 | KANR | ≤ 0.25
44 | KTAS | ≤ 0.25
45 | YHWC | ≤ 0.25
46 | DQYD | ≤ 0.25
47 | ANFC | ≤ 0.25
48 | LHNH | ≤ 0.25
49 | IWHC | ≤ 0.25
50 | DFIM | ≤ 0.25
51 | VMPM | ≤ 0.25
52 | QMIT | ≤ 0.25

Row | Variant | enrichment ratio
53 | HFKI | ≤ 0.25
54 | ISKW | ≤ 0.25
55 | WFAQ | ≤ 0.25
56 | PHIE | ≤ 0.25
57 | PPKH | ≤ 0.25
58 | SKKK | ≤ 0.25
59 | RCDP | ≤ 0.25
60 | MYYW | ≤ 0.25
61 | RPRD | ≤ 0.25
62 | GGSM | 7.14
63 | SRDF | ≤ 0.25
64 | IELW | ≤ 0.25
65 | QQCM | ≤ 0.25
66 | ERVH | ≤ 0.25
67 | TFGA | 2.06
68 | YTKQ | ≤ 0.25
69 | MHPW | ≤ 0.25
70 | GYYL | ≤ 0.25
71 | LETG | ≤ 0.25
72 | MINR | ≤ 0.25
73 | LCMC | ≤ 0.25
74 | YMPW | ≤ 0.25
75 | NIYH | ≤ 0.25
76 | AEEW | ≤ 0.25
77 | KFDG | ≤ 0.25
78 | ACSY | 4.44

Row | Variant | enrichment ratio
79 | PFPK | ≤ 0.25
80 | GLLQ | 3.83
81 | KYPC | ≤ 0.25
82 | TMYW | ≤ 0.25
83 | NTMY | ≤ 0.25
84 | RIGW | ≤ 0.25
85 | VVKF | ≤ 0.25
86 | MICT | ≤ 0.25
87 | TFYM | 0.392
88 | DRKT | ≤ 0.25
89 | ELCD | ≤ 0.25
90 | SCGC | 2.41
91 | QSCW | ≤ 0.25
92 | FKQC | ≤ 0.25
93 | ENMS | ≤ 0.25
94 | RNLM | ≤ 0.25
95 | FTHT | ≤ 0.25
96 | YNHP | ≤ 0.25
97 | YKHA | ≤ 0.25
98 | RYMP | ≤ 0.25
99 | DVLH | ≤ 0.25
100 | GFNF | ≤ 0.25
101 | HKGM | ≤ 0.25
102 | KVQL | ≤ 0.25
103 | RDQY | ≤ 0.25
104 | PSCR | ≤ 0.25

Row | Variant | enrichment ratio
105 | EWFS | ≤ 0.25
106 | KANI | ≤ 0.25
107 | LMVE | ≤ 0.25
108 | PIGF | ≤ 0.25
109 | RFHY | ≤ 0.25
110 | SNVN | 13.3
111 | DLWD | ≤ 0.25
112 | KKRE | ≤ 0.25
113 | NHNE | ≤ 0.25
114 | ILVV | ≤ 0.25
115 | PNAQ | ≤ 0.25
116 | DTER | ≤ 0.25
117 | MMKP | ≤ 0.25
118 | MEWG | ≤ 0.25
119 | TQHS | 2.15
120 | RDAC | ≤ 0.25
121 | LNEA | ≤ 0.25
122 | GENE | ≤ 0.25
123 | TEHY | 11.4
124 | MRHS | ≤ 0.25
125 | FKAH | ≤ 0.25
126 | YWTD | ≤ 0.25
127 | YLKH | ≤ 0.25
128 | DQPA | ≤ 0.25
129 | TTSQ | 16.8
130 | SFWN | ≤ 0.25

Row | Variant | enrichment ratio
131 | YTWT | ≤ 0.25
132 | VMWE | ≤ 0.25
133 | KKTC | ≤ 0.25
134 | LGLR | ≤ 0.25
135 | GQIM | 4.29
136 | FDGG | ≤ 0.25
137 | AGDW | ≤ 0.25
138 | NWTA | ≤ 0.25
139 | SMTL | 5.9
140 | ARAP | ≤ 0.25
141 | WTIS | ≤ 0.25
142 | GFNC | ≤ 0.25
143 | NRWS | ≤ 0.25
144 | RRYE | ≤ 0.25
145 | YQES | ≤ 0.25
146 | LMGD | ≤ 0.25
147 | PMGH | ≤ 0.25
148 | ASKD | ≤ 0.25
149 | YTVR | ≤ 0.25
150 | TSAM | 13.8
151 | QRMN | ≤ 0.25
152 | AWQF | ≤ 0.25
153 | LCIM | ≤ 0.25
